About 450 (0.94%) of roughly 48,000 compounds were called active. About 19% were inconclusive and are not listed. Calls follow the shape of the dose curve; as a rule, active = well fitted inhibition curve with a large enough effect; inconclusive = small, poorly fitted or top-dose-only effect; inactive = no such curve, though single readings can be large or run the other way. Some of the results follow.
experiment: Primary qHTS for Identification of Small Molecule Inhibitors of Huntingtin Promoter Activity; details: HEK293 HTT promoter firefly luciferase reporter (activity 0% = vehicle and -100% = no light), 24 h; series mostly up to 57.5 µM; activity change, negative = inhibition: at the top concentration; also: nearly all actives have a fitted effect of over 50% in size
Procedure, shortened: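 HEK293 Fluc reporter, 2,500 cells/well, 24 h pre-culture; cpds up to 57.5 uM final, 24 h 37 degrees C; Dual-Glo, 10 min RT; normalized vehicle = 0%, zero RLU = -100%.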

Activity change, negative = inhibition, inactive:
O=C(CCS(=O)(=O)c1cc(Br)cc2c1N(C(=O)C1CC1)CC2)Nc1ccc(C(F)(F)F)cc1 -1.58%, COc1cccc(CNC(=O)CN2C(=O)COc3ccc(S(=O)(=O)Nc4ccccc4)cc32)c1 -27.3%, Cn1c(=O)c2sccc2n2c(CCC(=O)NCc3ccccc3Cl)nnc12 -18.6%, COc1ccc(CNC(=O)C2CCN(C(=O)N3CC(C)Oc4ccc(C)cc43)CC2)cc1 (stereo unspecified) -29.7%, CN(Cc1ccccc1)C(=O)C1CCN(S(=O)(=O)c2ccc3nc4c(c(C(=O)O)c3c2)CCCC4)CC1 -3.21%, COc1ccc(-c2nc(Cn3c(SCc4ccccc4F)nc4ccncc43)c(C)o2)cc1OC -2.47%, CCOc1ccc(C(=O)Nc2cc(-c3cn4cccnc4n3)ccc2C)cc1OCC -3.43%, COc1ccc(CCNC(=O)c2c(C)oc3ncn(CC(C)C)c(=O)c23)cc1OC 0%, CCn1cc(C(=O)NCCc2ccc(C)cc2)c(=O)c2cc(S(=O)(=O)N3CCCCC3)ccc21 -2.43%, O=C(Cn1c(=O)n(-c2ccc(Cl)cc2)c(=O)c2oc3ccccc3c21)Nc1ccccc1 -24.5%, CC1CCN(c2ncnc3c2nnn3C)CC1 1.09%, O=C(c1ccco1)N1CCN(c2nc3c(Cl)cccc3s2)CC1 -2.29%, COc1cccc(C(=O)Nc2ccccc2-c2nnc(-c3cc(OC)ccc3Br)o2)c1 -10.8%, O=C(Cc1ccc(Cl)cc1)NCC(c1cccs1)S(=O)(=O)c1ccc(F)cc1 (stereo unspecified) -28.9%, Cn1cnc(S(=O)(=O)N2CCC(C(=O)NCc3ccc(F)cc3)CC2)c1 -10.1%, Cc1nn2c(=O)cc(COC(=O)c3cccc(NC(=O)c4ccc(C(C)(C)C)cc4)c3)nc2s1 -13.6%, COc1ccc(C(=O)CCC(=O)Nc2ccc(OC)c(Cl)c2)cc1 -0.374%, COc1ccc(C2=CC(c3cccc(C)c3)n3nnnc3N2)cc1 (stereo unspecified) -21.3%, CCOC(=O)c1c(C)oc2nc(C)nc(NCCc3ccc(SC)cc3)c12 3.98%, CCN(CC)S(=O)(=O)c1ccc2c(c1)N(CC(=O)Nc1ccc(C)cc1C)C(=O)C1CCCN21 (stereo unspecified) -17.5%, CC(C)NC(=O)c1ccccc1NC(=O)c1nsc2ccccc12 14.3%, CCOc1ccc2nc(N3CCCC(C(=O)Nc4cccc(Cl)c4C)C3)sc2c1 (stereo unspecified) 63%, CCc1cc2c(cc3c(=O)n(CC(=O)N4CCCCC4)ncn32)s1 1.9%, CCCCN(CCCC)CCNC(=O)c1cc(-c2cccnc2)nc2ccc(S(=O)(=O)N3CCC(C)CC3)cc12 3.27%, CCCCn1cc(S(=O)(=O)c2ccc(F)cc2)c(=O)c2ccccc21 -23%, COc1ccccc1CNC(=O)c1ccc(-c2nc(CS(=O)c3ccccc3)c(C)o2)cc1 (stereo unspecified) -22%, N#CC(=C(O)c1ccc(Cl)cc1Cl)c1nc2cc(Cl)ccc2c(=O)[nH]1 -1.75%, Cc1ccc(Cl)cc1NC(=O)CN1C(=O)COc2ccc(S(=O)(=O)N3CCOCC3)cc21 -16.8%, Cc1cnc2c(c1SCC(=O)Nc1ccc(F)cc1F)c(=O)n(C)c(=O)n2C -14.1%, COc1ccc(Cn2c(SCC(N)=O)nc3c(sc4ccccc43)c2=O)cc1 10.5%, Cc1cc(F)ccc1NC(=O)C1CCCN(S(=O)(=O)c2ccc3c(c2)CCCC(=O)N3)C1 (stereo unspecified) -32%, COc1ccc(S(=O)(=O)c2c(Nc3ccc(C)cc3)sc(C(=O)c3ccc4c(c3)OCO4)c2N)cc1 -30%, CN(C)c1ccc(CN(CC2CCCO2)C(=O)c2ccc(Br)cc2)cc1 (stereo unspecified) -17.3%, Cc1ccc2[nH]c3c(=O)n(CC(=O)N4CCN(c5cccc(C(F)(F)F)c5)CC4)ncc3c2c1 4.61%, COc1cccc(CNC(=O)CN2C(=O)CSc3c2c(C)nn3-c2ccccc2)c1 -21.9%, Cc1ccc(-n2c(=O)c3ccc(C(=O)NCc4ccccc4Cl)cc3n(CC(=O)Nc3cccc(F)c3)c2=O)cc1 -13.1%, Cc1ccc2[nH]c(CSc3nnc(COc4ccccc4C)n3C)cc(=O)c2c1 -27.7%, O=C(COCc1cc(-c2cccs2)on1)Nc1ccc(OC(F)(F)F)cc1 -1.31%, Cc1cc2c(cc1C)NC(CC(=O)Nc1ccccc1SC(F)(F)F)C(=O)N2 (stereo unspecified) -5.96%, Cc1ccc(S(=O)(=O)c2nc(-c3ccco3)oc2SCC(C)C)cc1 -29.8%, COc1cc(OC)c(NC(=O)Cn2cnc3sc(C)c(S(=O)(=O)N4CCN(C)CC4)c3c2=O)cc1Cl -13.4%, COc1ccc2ncc3c(-c4ccc(C)c(C)c4)nn(CC(=O)NC4CCCCC4)c3c2c1 -1.95%, CCc1ccccc1NC(=O)CN1C(=O)c2cccnc2Oc2ccc(Cl)cc21 -15.7%, CCOc1ccc(Br)cc1CNCCSc1nnnn1-c1ccccc1 -16.1%, CCc1ccc(NC(=O)c2nn(-c3ccc(C)cc3)c(=O)n(C)c2=O)cc1 -13.1%, COC(=O)NCc1c(C)nn(-c2ccccc2)c1-n1cccc1 -23.6%, COc1ccc(CNC(=O)c2cc3c(s2)-c2c(C)cccc2OC3)cc1 -5.61%, CCOC(=O)N1CCC2(CC1)OC(=O)C(C)=C2C(=O)NCc1cccc(OC)c1 -4.16%, Cn1c(=O)n(-c2cccc(Cl)c2)c(=O)c2sc3ccccc3c21 -14.5%, Cc1cc(NC(=O)Cn2nc(C)n3cccc3c2=O)ccc1Br -7.37%, CNC(=O)c1sc2ncccc2c1-n1cccc1 -2.49%, CCCS(=O)(=O)N1CC(=O)N(c2ccccc2C)C(C)(C(=O)NC2CCCC2)C1 (stereo unspecified) 1.95%, Cc1cccc(-n2ncc(C(=O)NCc3ccccn3)c2C2CCN(C(=O)OC(C)(C)C)CC2)c1 12.5%, CCN1CCN(Cc2c(O)ccc3c(C)c(-c4ccccc4)c(=O)oc23)CC1 -19.6%, CCCC(C(=O)OCCN(CC)CC)(c1ccccc1)c1ccccc1 -24.2%, Cc1ccc(NC(=O)Cn2c(=O)n(CCC(=O)NCc3ccc4c(c3)OCO4)c(=O)c3sccc32)c(C)c1 5.34%, Cc1ccc(C)c(N2CCN(c3nc4ccccc4n4c(C)nnc34)CC2)c1 -7.07%, Cc1ccc(NC(=O)C(c2ccccc2)N2Cc3ccccc3C2=O)cc1Cl (stereo unspecified) 3.45%, CCN1CCN(C(c2ccc(F)cc2)c2c(O)cc(C)n(CCOC)c2=O)CC1 (stereo unspecified) -9%, CCc1cccc2c(-c3ccc(F)cc3)nc(SCC(=O)Nc3ccccc3)nc12 -8.23%, CC(C)CCNC(=O)C1CCN(C(=O)N2CCOc3ccc(Cl)cc32)CC1 -21.4%, COc1ccc(C(=O)Nc2ccc(-c3cc4ccccc4oc3=O)c(C)c2)cc1OC -21.6%, CCOC(=O)c1c(C)[nH]c(C)c1S(=O)(=O)N1CCCC(C(=O)Nc2ccc(F)cc2F)C1 (stereo unspecified) -8%, O=C(NC1CCCCCC1)c1ccc2c(c1)sc1nc(-c3ccccc3)cn12 4.74%, COc1cc(C2CC(=O)N(c3ccccc3)C3=C2C(=O)OC3)cc(OC)c1OC (stereo unspecified) 0%, CCN1CCN(c2ncnc3c2cnn3-c2ccc(C)cc2)CC1 10.2%, C=C(C)CSc1nc2sc3c(c2c(=O)n1-c1ccccc1)CCC(C)C3 (stereo unspecified) -9.31% [at 11.5 µM], COc1ccccc1CNc1ccc(-c2nc(-c3ccncc3)no2)cc1[N+](=O)[O-] -9.39%, COc1ccc(CNC(=O)CC(c2ccc(OC)c(OC)c2)N2Cc3ccccc3C2=O)cc1 (stereo unspecified) -6.67%, CCOc1ccc(NC(=O)CSC2=Nc3ccccc3C3=NC(CC(=O)NCc4ccco4)C(=O)N23)cc1 (stereo unspecified) -13.9%, N#Cc1c[nH]n2c(NC3CCCC3)c(-c3cccc(Cl)c3)nc12 -2.2%, CCOC(=O)c1sc2ncn(CC(=O)Nc3ccc(C)cc3Br)c(=O)c2c1C -6.66%, COc1ccccc1-n1c(/C=C/c2c(C)n(C)c3ccccc23)nc2ccccc2c1=O -21.7%, CCOc1ccc(OCC(=O)Nc2nnc3n2CCS3)cc1 2.7%, CCOc1ccc(Sc2cc(C(=O)NCCc3ccccc3)c3ccccc3n2)cc1 -19.1%, COc1cccc(CNC(=O)C2CCC(CNS(=O)(=O)c3ccc(Br)s3)CC2)c1 (stereo unspecified) -9.02%, CCOC(=O)C(Cc1c[nH]c2ccccc12)NC(=O)COc1ccc(Cl)c(C)c1 (stereo unspecified) -8.55%, CCOc1nc(NC(=O)NS(=O)(=O)Oc2ccccc2)nc(-c2ccccc2)n1 38.5%, O=S(=O)(c1ccc2c(c1)CCN2)N1CCCCCC1 3.16%, CCc1ccc(NCc2cc3cc(OC)c(OC)cc3n(CC(=O)Nc3cc(C)ccc3C)c2=O)cc1 -17.8%, CCC(C)OC(=O)/C(C#N)=C\c1ccc(-c2cccc(C(F)(F)F)c2)o1 (stereo unspecified) -26.1% [at 11.5 µM], COc1ccc(S(=O)(=O)N(CC(=O)NCc2ccccc2)c2ccc(C)cc2)cc1OC 62%, O=C(Cn1c(=O)nc(-c2ccccc2)c2ccccc21)NCc1ccc(F)cc1 -9.26%, Cc1cc(O)c(C(c2ccccc2)N2CCN(C)CC2)c(=O)n1Cc1ccco1 (stereo unspecified) -4.42%, O=C(Nc1ccccc1)N(Cc1ccc(F)cc1)c1ccccn1 -7.48%, C=Cc1ccc(CN2C(=O)c3ccccc3Sc3ccc(C(=O)OCc4ccco4)cc32)cc1 -28.6%, COc1ccc(-c2noc(CN(C(C)C)S(=O)(=O)c3ccc(Br)cc3)n2)cc1 -13.7%, CC1=C(C(=O)N2CCN(c3cccc(C)c3C)CC2)C2(CCCCC2)OC1=O -6.48%, Cc1cccc(NC2=CC(c3cccc(Br)c3)N(c3cccc(C)c3)C2=O)c1 (stereo unspecified) -8.31%, CCOC(=O)c1c(C)[nH]c(C)c1S(=O)(=O)NCC(=O)N1CCN(c2cccc(C)c2)C(C)C1 (stereo unspecified) -29.4%, Cc1ccc(CNC(=O)c2c(O)nc3c(C)cccn3c2=O)cc1 -18.4%, CCN(CC)CCCNC(=O)c1ccc2c(c1)NC(=O)C(CS(=O)(=O)Cc1cccc(Br)c1)N2 (stereo unspecified) -14.2%, COc1ccc(Br)cc1CNC(=O)c1nn(-c2ccc(C)cc2)c(=O)c2c1c1ccccc1n2C -17.4%, NC(=O)NO 0.564%, Cc1ccccc1-c1noc(-c2cccnc2N(C)Cc2ccc(Cl)cc2)n1 -21.3%, O=C(C1CC1)N1CCN(c2nc3c(Cl)cccc3s2)CC1 -8.38%

— PubChem BioAssay AID1508623 (National Center for Advancing Translational Sciences (NCATS), 2021)
